Source: the supplement of paper PMC3334620
Whole data set: some 33,000 sequences, median “E-score (-0.5 to 0.5)” near -0.017, cut for the highest 2% near 0.3. This is one part of the list.

Molecular target: T1, Sut1 (UniProt P53032)
T1 sequence: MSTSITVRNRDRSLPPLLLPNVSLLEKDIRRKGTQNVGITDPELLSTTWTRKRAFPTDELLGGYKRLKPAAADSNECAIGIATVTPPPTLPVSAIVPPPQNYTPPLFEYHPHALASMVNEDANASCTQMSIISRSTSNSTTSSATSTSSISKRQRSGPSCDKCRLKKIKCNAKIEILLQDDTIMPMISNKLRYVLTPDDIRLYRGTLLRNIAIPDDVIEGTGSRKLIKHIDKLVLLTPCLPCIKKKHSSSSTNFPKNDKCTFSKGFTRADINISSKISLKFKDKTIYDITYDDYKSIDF
Test: PBM E-score (8-mer binding enrichment) (E-score (-0.5 to 0.5)); higher = stronger / more preferred TF binding; most listed sequences are background and not binding sites
Conditions: protein concentration: 200 nM; construct: GST-full length
Outline: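 For each ungapped eight-base word taken together with its reverse complement, the Universal PBM Analysis Suite assigned an E-score. Binding data came from GST-tagged yeast transcription factors, applied at about 100-200 nM, on universal all-10-mer Agilent arrays made double-stranded by primer extension. Fluorescent anti-GST marked bound protein, and scans were normalised with masliner.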

In order of falling “PBM E-score” value:
1. AGTCCGTA  0.445
2. ACAACTCC  0.431
3. TTAATAAA  0.341
4. ATACAAAC  0.298
5. ACAATTAT  0.276
6. ACTAAACA  0.272
7. TAATACAA  0.264
8. TAAAACTA  0.257
9. ATCCGGGG  0.256
10. AATTAACA  0.237
11. AATTTAGA  0.23
12. ATATAGTG  0.23
13. GATTATTA  0.229
14. TCCCCGAA  0.228
15. AATAGAAC  0.219
16. AACTAGAA  0.188
17. CGTTTATC  0.171
18. CCGACGAA  0.164
19. GTCGAAAA  0.149
20. ATGAAATA  0.147
21. AACGAACA  0.147
22. CTTAAATC  0.146
23. AGTATCTA  0.144
24. GTAATGGA  0.141
25. CCTAAAAA  0.138
26. AACCAACA  0.131
27. CATGAACC  0.129
28. TCAAGTAA  0.122
29. AAGATTAT  0.116
30. ATTTGTGG  0.116
31. TGGCAAAA  0.109
32. GAGACCGA  0.108
33. ATCCATAC  0.107
34. CTTCAACC  0.0965
35. GCCGTTAA  0.092
36. GTTATTGA  0.0899
37. CAATCGCA  0.0882
38. ATTTTCGA  0.0872
39. AAGATTAG  0.0842
40. AAATCCCA  0.0824
41. TCCAAAAA  0.0814
42. ACTCACGG  0.0805
43. GAAGAGCC  0.0782
44. GTCACTTA  0.0767
45. TTAATTAA  0.0737
46. CAATGGGA  0.0704
47. AACCGCGT  0.0671
48. ATCATCCC  0.0659
49. GCGTTGAA  0.0644
50. CACGTTCG  0.0567
51. AAATATGC  0.054
52. TCCGCCCA  0.0508
53. CCGTATTA  0.0499
54. GAATTGGA  0.0498
55. GCGTTCAA  0.0494
56. GGCGCCGA  0.0464
57. AAACTCCC  0.0435
58. GTTCACTA  0.0435
59. CGTCATTA  0.0432
60. GCCTTAGC  0.0421
61. ATCAACTG  0.0416
62. ACGATTCC  0.0389
63. CTTTGCAC  0.0354
64. ATATGGAC  0.0348
65. ACAGCCTA  0.0344
66. TAGGTATA  0.0301
67. GGTCCTAA  0.0262
68. ATAATGGC  0.0244
69. ACGTCTAG  0.0229
70. GCATCCTA  0.0211
71. CCATGCAA  0.0211
72. ATGGTATC  0.0187
73. GTACTTAA  0.0179
74. CTAGTAGA  0.0133
75. CCGCTGTA  0.00817
76. AATGTTCC  0.00585
77. TTCTACAA  -0.00077
78. CAATTGCG  -0.00164
79. CAGTTGAC  -0.00714
80. CCGGGTCC  -0.00864
81. ATGACGAC  -0.00927
82. GACGCATC  -0.0188
83. AATGCTCC  -0.0208
84. CCGATACG  -0.0215
85. CTATACGC  -0.0215
86. GATGTCCC  -0.0228
87. CAGTAAGA  -0.0234
88. AAGAGGTC  -0.0239
89. ACCGTGGA  -0.0245
90. ACCCAACG  -0.0276
91. GGGTAGAA  -0.0311
92. CTTGGGAA  -0.0313
93. GTGGTCTA  -0.033
94. GTTGCAGA  -0.0396
95. ACGACTCA  -0.0425
96. AGAAGTTC  -0.0438
97. CCGCGCCA  -0.0442
98. ATTCGTCA  -0.0444
99. ACATAGCG  -0.0445
100. ACTGGCTG  -0.0504
101. ACACCGTC  -0.0512
102. ATAGTGGG  -0.0539
103. CGCCTAGA  -0.0574
104. AATCGCTA  -0.0577
105. TGAACTCA  -0.061
106. GGGAGTAC  -0.064
107. ATAAGCCG  -0.0653
108. GTCAACCA  -0.0656
109. CGTGGCAG  -0.0671
110. TCCCTTAA  -0.0727
111. CAACGTCA  -0.0732
112. CCAACCGC  -0.0734
113. CCCGTCGG  -0.0797
114. CAACCTAG  -0.081
115. CTAGGAGA  -0.0821
116. GCCCTGAA  -0.0902
117. GAATGGAC  -0.0938
118. GCCTGACC  -0.0939
119. GCCCCAAC  -0.0975
120. GGATCTGA  -0.0985
121. ACGATGCT  -0.105
122. CATAGGCA  -0.11
123. ACCACGCG  -0.113
124. GACCATGC  -0.114
125. AGTGGTGC  -0.116
126. AGGTCATC  -0.118
127. ATGGGCCG  -0.12
128. ACGAAGTG  -0.122
129. GGGAAGTA  -0.124
130. ACTCGCAC  -0.131
131. CTGCTTCC  -0.136
132. CACAGGTC  -0.138
133. ATCCCAGG  -0.138
134. ACCAGACT  -0.139
135. ATGGTGTC  -0.14
136. AGCCTGGG  -0.144
137. ATAGGCCG  -0.146
138. AGTGACCG  -0.155
139. CCTAAAGC  -0.157
140. AGGTGAGC  -0.158
141. AGTGTGCG  -0.167
142. AGCCTGCC  -0.168
143. CAGGAGAC  -0.17
144. GCGACTAC  -0.172
145. CGCGTGGA  -0.177
146. GTTAGGGA  -0.179
147. GGTGGCTA  -0.182
148. ACTCCTGG  -0.189
149. CCCCTAAG  -0.19
150. AAGACTTC  -0.196
151. TGACTCCA  -0.198
152. CTCGTTCA  -0.205
153. GTCAGGAC  -0.206
154. ACCGCACG  -0.207
155. TGGCGACA  -0.207
156. CCTAACCC  -0.21
157. AGCGCCCG  -0.216
158. CCGTCAGG  -0.217
159. CCAGTTAC  -0.226
160. CGCCCACG  -0.242
161. GCCTAGGC  -0.252
162. CCCCTATC  -0.253
163. CCCATTCC  -0.257
164. CACGGCCC  -0.26
165. CGTTGCCC  -0.267
166. GCAGGCCC  -0.275
167. ACCCTGAC  -0.275
168. CCTGGCTC  -0.284
169. CACGTAGC  -0.304
170. CAGTCCCA  -0.315
171. ACCCCCTG  -0.343
172. CCTTAGGC  -0.345
